# In patent US20200002432A1, “ANTI-CD98 ANTIBODIES AND ANTIBODY DRUG CONJUGATES” (AbbVie Inc., priority 2016, published 2020):
# Residue numbers refer to the chain shown, from its start.
# B1: CD98 (CL-huAb102)-ZT (conjugate)
# heavy: EVQLVESGGGLVQPGGSLRLSCATSGFTFIDYYMSWVRQAPGKGLEWLGFIRNKANRYTTEYSASVKGRFTISRDNSKSILYLQMNSLKTEDTAVYYCTRDRPAWFVYWGQGTLVTVSSASTKGPSVFPLAPSSKSTSGGTAALGCLVKDYFPEPVTVSWNSGALTSGVHTFPAVLQSSGLYSLSSVVTVPSSSLGTQTYICNVNHKPSNTKVDKKV[skipping human IgG1 Fc with changes]
# light: DIVMTQTPLSLPVTPGEPASISCKSSQSLLYSSNQKNYLAWYLQKPGQSPQLLIYWASTRESGVPDRFSGSGSGTDFTLKISRVEAEDVGVYYCQQYYSYPYTFGGGTKVEIKRTVAAPSVFIFPPSDEQLKSGTASVVCLLNNFYPREAKVQWKVDNALQSGNSQESVTEQDSKDSTYSLSSTLTLSKADYEKHKVYACEVTHQGLSSPVTKSFNRGEC
# B2: CD98 (CL-huAb102)-ZZ (conjugate)
# heavy: EVQLVESGGGLVQPGGSLRLSCATSGFTFIDYYMSWVRQAPGKGLEWLGFIRNKANRYTTEYSASVKGRFTISRDNSKSILYLQMNSLKTEDTAVYYCTRDRPAWFVYWGQGTLVTVSSASTKGPSVFPLAPSSKSTSGGTAALGCLVKDYFPEPVTVSWNSGALTSGVHTFPAVLQSSGLYSLSSVVTVPSSSLGTQTYICNVNHKPSNTKVDKKV[skipping human IgG1 Fc with changes]
# light: B1 light
# B3: CD98 (CL-huAb102)-SE (conjugate)
# heavy: EVQLVESGGGLVQPGGSLRLSCATSGFTFIDYYMSWVRQAPGKGLEWLGFIRNKANRYTTEYSASVKGRFTISRDNSKSILYLQMNSLKTEDTAVYYCTRDRPAWFVYWGQGTLVTVSSASTKGPSVFPLAPSSKSTSGGTAALGCLVKDYFPEPVTVSWNSGALTSGVHTFPAVLQSSGLYSLSSVVTVPSSSLGTQTYICNVNHKPSNTKVDKKV[skipping human IgG1 Fc with changes]
# light: B1 light
# B4: CD98 (CL-huAb102)-SR (conjugate)
# heavy: EVQLVESGGGLVQPGGSLRLSCATSGFTFIDYYMSWVRQAPGKGLEWLGFIRNKANRYTTEYSASVKGRFTISRDNSKSILYLQMNSLKTEDTAVYYCTRDRPAWFVYWGQGTLVTVSSASTKGPSVFPLAPSSKSTSGGTAALGCLVKDYFPEPVTVSWNSGALTSGVHTFPAVLQSSGLYSLSSVVTVPSSSLGTQTYICNVNHKPSNTKVDKKV[skipping human IgG1 Fc with changes]
# light: B1 light
# B5: CD98 (CL-huAb104)-ZT (conjugate)
# heavy: EVQLVESGGGLVQPGGSLRLSCATSGFTFIDYYMSWVRQAPGKGLEWLGFIRNKAYGYTTEYSASVKGRFTISRDNSKSILYLQMNSLKTEDTAVYYCTRDRPAWFVYWGQGTLVTVSSASTKGPSVFPLAPSSKSTSGGTAALGCLVKDYFPEPVTVSWNSGALTSGVHTFPAVLQSSGLYSLSSVVTVPSSSLGTQTYICNVNHKPSNTKVDKKV[skipping human IgG1 Fc with changes]
# light: B1 light
# B6: CD98 (CL-huAb108)-XW (conjugate)
# heavy: EVQLVQSGAEVKKPGASVKVSCKASGFTFSDYTMAWVRQAPGQGLEWVATIIYSGRGTYYRDAVKGRFTITRDNSTSTLYLELSSLRSEDTAVYYCARQSDDTYYYWGYFDYWGQGTMVTVSSASTKGPSVFPLAPSSKSTSGGTAALGCLVKDYFPEPVTVSWNSGALTSGVHTFPAVLQSSGLYSLSSVVTVPSSSLGTQTYICNVNHKPSNTKVDKKV[skipping human IgG1 Fc with changes]
# light: B1 light with S22N, Y31F, S33G, E61Q, V91I, S99D, Y100V, G106Q, V110L
# B7: CD98 (CL-huAb110)-ZZ (conjugate)
# heavy: EVQLVQSGAEVKKPGASVKVSCKASGFTFSDYTMAWVRQAPGQGLEWVATIIYDARGTYYRDAVKGRFTITRDNSTSTLYLELSSLRSEDTAVYYCARQSDDTYYYWGYFDYWGQGTMVTVSSASTKGPSVFPLAPSSKSTSGGTAALGCLVKDYFPEPVTVSWNSGALTSGVHTFPAVLQSSGLYSLSSVVTVPSSSLGTQTYICNVNHKPSNTKVDKKV[skipping human IgG1 Fc with changes]
# light: B1 light with S22N, Y31F, S33G, E61Q, V91I, Y100S, G106Q, V110L
# B8: CD98 (CL-huAb102)-XW (conjugate)
# heavy: EVQLVESGGGLVQPGGSLRLSCATSGFTFIDYYMSWVRQAPGKGLEWLGFIRNKANRYTTEYSASVKGRFTISRDNSKSILYLQMNSLKTEDTAVYYCTRDRPAWFVYWGQGTLVTVSSASTKGPSVFPLAPSSKSTSGGTAALGCLVKDYFPEPVTVSWNSGALTSGVHTFPAVLQSSGLYSLSSVVTVPSSSLGTQTYICNVNHKPSNTKVDKKV[skipping human IgG1 Fc with changes]
# light: B1 light
# B9: CD98 (CL-huAb110)-SE (conjugate)
# heavy: EVQLVQSGAEVKKPGASVKVSCKASGFTFSDYTMAWVRQAPGQGLEWVATIIYDARGTYYRDAVKGRFTITRDNSTSTLYLELSSLRSEDTAVYYCARQSDDTYYYWGYFDYWGQGTMVTVSSASTKGPSVFPLAPSSKSTSGGTAALGCLVKDYFPEPVTVSWNSGALTSGVHTFPAVLQSSGLYSLSSVVTVPSSSLGTQTYICNVNHKPSNTKVDKKV[skipping human IgG1 Fc with changes]
# light: B1 light with S22N, Y31F, S33G, E61Q, V91I, Y100S, G106Q, V110L
# B10: CD98 (CL-huAb104)-ZZ (conjugate)
# heavy: EVQLVESGGGLVQPGGSLRLSCATSGFTFIDYYMSWVRQAPGKGLEWLGFIRNKAYGYTTEYSASVKGRFTISRDNSKSILYLQMNSLKTEDTAVYYCTRDRPAWFVYWGQGTLVTVSSASTKGPSVFPLAPSSKSTSGGTAALGCLVKDYFPEPVTVSWNSGALTSGVHTFPAVLQSSGLYSLSSVVTVPSSSLGTQTYICNVNHKPSNTKVDKKV[skipping human IgG1 Fc with changes]
# light: B1 light
# B11: CD98 (CL-huAb108)-ZT (conjugate)
# heavy: EVQLVQSGAEVKKPGASVKVSCKASGFTFSDYTMAWVRQAPGQGLEWVATIIYSGRGTYYRDAVKGRFTITRDNSTSTLYLELSSLRSEDTAVYYCARQSDDTYYYWGYFDYWGQGTMVTVSSASTKGPSVFPLAPSSKSTSGGTAALGCLVKDYFPEPVTVSWNSGALTSGVHTFPAVLQSSGLYSLSSVVTVPSSSLGTQTYICNVNHKPSNTKVDKKV[skipping human IgG1 Fc with changes]
# light: B1 light with S22N, Y31F, S33G, E61Q, V91I, S99D, Y100V, G106Q, V110L
# B12: CD98 (CL-huAb108-ZZ (conjugate)
# heavy: EVQLVQSGAEVKKPGASVKVSCKASGFTFSDYTMAWVRQAPGQGLEWVATIIYSGRGTYYRDAVKGRFTITRDNSTSTLYLELSSLRSEDTAVYYCARQSDDTYYYWGYFDYWGQGTMVTVSSASTKGPSVFPLAPSSKSTSGGTAALGCLVKDYFPEPVTVSWNSGALTSGVHTFPAVLQSSGLYSLSSVVTVPSSSLGTQTYICNVNHKPSNTKVDKKV[skipping human IgG1 Fc with changes]
# light: B1 light with S22N, Y31F, S33G, E61Q, V91I, S99D, Y100V, G106Q, V110L
# B13: CD98 (CL-huAb104)-SE (conjugate)
# heavy: EVQLVESGGGLVQPGGSLRLSCATSGFTFIDYYMSWVRQAPGKGLEWLGFIRNKAYGYTTEYSASVKGRFTISRDNSKSILYLQMNSLKTEDTAVYYCTRDRPAWFVYWGQGTLVTVSSASTKGPSVFPLAPSSKSTSGGTAALGCLVKDYFPEPVTVSWNSGALTSGVHTFPAVLQSSGLYSLSSVVTVPSSSLGTQTYICNVNHKPSNTKVDKKV[skipping human IgG1 Fc with changes]
# light: B1 light
# B14: CD98 (CL-huAb110)-ZT (conjugate)
# heavy: EVQLVQSGAEVKKPGASVKVSCKASGFTFSDYTMAWVRQAPGQGLEWVATIIYDARGTYYRDAVKGRFTITRDNSTSTLYLELSSLRSEDTAVYYCARQSDDTYYYWGYFDYWGQGTMVTVSSASTKGPSVFPLAPSSKSTSGGTAALGCLVKDYFPEPVTVSWNSGALTSGVHTFPAVLQSSGLYSLSSVVTVPSSSLGTQTYICNVNHKPSNTKVDKKV[skipping human IgG1 Fc with changes]
# light: B1 light with S22N, Y31F, S33G, E61Q, V91I, Y100S, G106Q, V110L
# B15: CD98 (CL-huAb104)-XW (conjugate)
# heavy: EVQLVESGGGLVQPGGSLRLSCATSGFTFIDYYMSWVRQAPGKGLEWLGFIRNKAYGYTTEYSASVKGRFTISRDNSKSILYLQMNSLKTEDTAVYYCTRDRPAWFVYWGQGTLVTVSSASTKGPSVFPLAPSSKSTSGGTAALGCLVKDYFPEPVTVSWNSGALTSGVHTFPAVLQSSGLYSLSSVVTVPSSSLGTQTYICNVNHKPSNTKVDKKV[skipping human IgG1 Fc with changes]
# light: B1 light
# System: Molt-4 human acute lymphoblastic leukemia cell line
# Experiment: Growth inhibition assay, ATPlite 1 step, 72 hours
# Type: cell-based
# Conditions: Molt-4 cells; for % Cell Viability at 50 nM: 50 nM ADC; for IC50: ATPlite 1 step, read-out: Molt4 IC50
# Procedure: The activities of these ADCs were tested in growth inhibition assays in the Molt-4 human acute lymphoblastic leukemia cell line. Briefly, 5000 Molt-4 cells per well in 96-well plates were treated with ADCs in serial dilution for 72 hours. The number of viable cells was determined by the ATPlite 1 step reagent (PerkinElmer 6016739) as instructed by the manufacturer. Data was analyzed using Graphpad Prism software and IC50 values were reported as the concentration of ADC to achieve 50% inhibition of cell proliferation (Table 27).
Molecule,% Cell Viability at 50 nM,IC50
B1,3.4%,0.04 nM
B2,6.3%,0.072 nM
B3,19.7%,0.107 nM
B4,12.7%,0.03 nM
B5,3.3%,0.042 nM
B6,20.9%,0.281 nM
B7,4.3%,0.252 nM
B8,32.0%,0.074 nM
B9,5.7%,0.502 nM
B10,6.5%,0.061 nM
B11,4.5%,0.144 nM
B12,5.8%,0.199 nM
B13,17.1%,0.149 nM
B14,3.5%,0.156 nM
B15,31.1%,0.102 nM
